The structures appear in SMILES notation.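 96-well plates; 48 h exposure; 5 concentrations. Endpoints by linear interpolation between flanking doses. Not reached: highest tested concentration assigned. GI50 is the concentration that inhibits growth by half. TGI marks complete inhibition of growth.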

This test concerns NCI-H322M lung. The experiment in a line: NCI tumour cell line growth inhibition, 48 h.
Turning to `COc1ccc(/C=C/C(=O)c2ccc(N3CCN(C)CC3)cc2)c(C(F)(F)F)c1`, the GI50 is 14.6 µM and the TGI is 27.7 µM.

For the compound `CSc1ccc(NC(=O)c2ccc3nnn(/C(C#N)=C/c4ccccn4)c3c2)cc1`, the GI50 is 2.53 µM and the TGI was 7.39 µM.

With `O=C1Nc2ccc(Cl)cc2/C1=C/c1cccc(OCc2ccccn2)c1`, the GI50 is 15.1 µM and the TGI is 29.9 µM.

Source of the values: PubChem BioAssay (NCI).
